Binding signal data for 42 sequences are collected here from article PMC7819943, “Rice protein-binding microarrays: a tool to detect cis-acting elements near promoter regions in rice”.

Some of the results follow.

The target in the assay is T1, OsWOX13 (Oryza sativa, UniProt Q5QMM3 1-267).
T1 sequence: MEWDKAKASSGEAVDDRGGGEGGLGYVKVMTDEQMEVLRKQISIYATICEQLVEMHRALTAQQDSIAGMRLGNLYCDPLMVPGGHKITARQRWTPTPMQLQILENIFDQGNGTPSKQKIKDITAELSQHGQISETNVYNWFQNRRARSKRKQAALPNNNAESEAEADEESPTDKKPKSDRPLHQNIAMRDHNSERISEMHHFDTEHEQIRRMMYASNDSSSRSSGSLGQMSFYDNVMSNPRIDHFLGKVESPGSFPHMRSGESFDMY
As to the kind of experiment: protein-binding microarray (RPBM); PBS, 2% BSA, 51.3 ng/ul salmon testes DNA, 50 uM zinc acetate, 200 nM TF, 25 C, 1 h; high values mean tight binding. Conditions: protein: recombinant; tags: N-terminal polyhistidine and DsRed monomer fusion (pET32a); label: CyDye5-dUTP incorporated in the synthesized complementary strand; 3' TTTTT single-stranded linker to array surface; dsDNA, one strand shown. The method, boiled down: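 Binding signal here means per-feature fluorescence intensity in arbitrary units. The values were read on an Axon 4000B scanner after a custom Agilent array, double-stranded by primer extension with Cy5-dUTP, was incubated with 200 nM protein at 25 °C for 1 h in PBS with 2% BSA, salmon testes DNA and 50 µM zinc acetate, then washed. The proteins were transcription factors with an N-terminal polyhistidine tag and DsRed, expressed in E. coli BL21-CodonPlus and purified on Ni–NTA.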
As for “CCAAAATGATAAGATATCTAATCTAATCACACCTCAAAGTCGGAGTCACCTAGTGCAG”, the binding signal was 13200 fluorescence intensity (a.u.).

Consider “TAAAATTTAAAATTATGTTGTCATTTTAATATATTTGAATCGGAGTCACCTAGTGCAG”, for which the binding signal was 5930 fluorescence intensity (a.u.). On to “CAACTGATTCTAATTTTACTACGGCCCAGTATGTACCAATCGGAGTCACCTAGTGCAG”, for which the binding signal was 8360 fluorescence intensity (a.u.). In the case of “GTAGCTAATTAAGTAAGGGATAGCTTTAATAGCTCGATTTCGGAGTCACCTAGTGCAG” it was 8270 fluorescence intensity (a.u.); in that of “TGTTTGATAATTGACTTTTCCATTCCAAATTACAGACACTCGGAGTCACCTAGTGCAG”, 28000 fluorescence intensity (a.u.); in that of “TGGCGTAATTAGCCTCAAAAGATTCGTCTCGTAATTTACACGGAGTCACCTAGTGCAG”, 8550 fluorescence intensity (a.u.). For the sequence “TTGATAGCTTATCAGTAATGGCACGCATCGTACGTTGCAGCGGAGTCACCTAGTGCAG”, the binding signal was 3970 fluorescence intensity (a.u.). To “AATCACATATCTAGATTTACAAATTTGTAAAGTTAGAAATCGGAGTCACCTAGTGCAG” belongs 6790 fluorescence intensity (a.u.); to “TATAATTACAGGATTTCTTTTGTACTCCCTCCATTCTAAACGGAGTCACCTAGTGCAG”, 5820 fluorescence intensity (a.u.); to “CGATGACTGGAATATGCCTCACACGGCTGCAAAACTGCAGCGGAGTCACCTAGTGCAG”, 14200 fluorescence intensity (a.u.). In the case of “TAAATTTGATTTAGTTAATACTATACTTATTTAAGGTACACGGAGTCACCTAGTGCAG”, the binding signal is 25400 fluorescence intensity (a.u.). To “CCGCACATGTCAAATTCTAATTGGGTAAGGATGTCACACCCGGAGTCACCTAGTGCAG” belongs 4890 fluorescence intensity (a.u.); to “AATCAATTAATGCTGTGAAATGAATTAATGCATAGTGGCACGGAGTCACCTAGTGCAG”, 41600 fluorescence intensity (a.u.); to “GAGGGAGTAATAATTAGATTTAGATATGTACTAATACACTCGGAGTCACCTAGTGCAG”, 7470 fluorescence intensity (a.u.). As for “GATAACTATGATTTCTCAACAATTGGATTATTCTAAAGCGCGGAGTCACCTAGTGCAG”, the binding signal is 10200 fluorescence intensity (a.u.). As to “AAGACGTTTCTCAATTATTGTAGTTAAGTGAGTTTAGTATCGGAGTCACCTAGTGCAG”, the binding signal is 4920 fluorescence intensity (a.u.).

As to “CATGGTGATAGGAAAAGTTACATGTCTCCACAATATGTAACGGAGTCACCTAGTGCAG”, the binding signal is 4380 fluorescence intensity (a.u.). In the case of “GCGGGCGGAGGAGCTCGGGCGTGGGCGGGGAGGGCGGATCCGGAGTCACCTAGTGCAG” it was 3250 fluorescence intensity (a.u.).

Consider “ATGTTGATATATAAAGATTTTACTAATCATACTTTTAAAACGGAGTCACCTAGTGCAG”, for which the binding signal was 6020 fluorescence intensity (a.u.). In the case of “TTCGAAAATTACCTGTAACCTTCCATCCATCACACACACACGGAGTCACCTAGTGCAG” it was 3500 fluorescence intensity (a.u.); in that of “TTTGATAGGACGAATCTGAACTTCTGAAGCCATCATACTTCGGAGTCACCTAGTGCAG”, 13000 fluorescence intensity (a.u.). Consider “GATGATTTGCTTACTGAATGTCTCGGGTATTTAGTTCCAACGGAGTCACCTAGTGCAG”, for which the binding signal was 38500 fluorescence intensity (a.u.). In the case of “ATACTGCTGTAACATTTGATTGGATTGAAAGGATATCGCTCGGAGTCACCTAGTGCAG” it was 20500 fluorescence intensity (a.u.); in that of “AATATAATCAAATTTAGCCAATAAAAGGTTTAGATTGTCACGGAGTCACCTAGTGCAG”, 7290 fluorescence intensity (a.u.). As for “TGTGATTGGTTGGAGCAGCTGCGCGCGGATCGCATTCGCACGGAGTCACCTAGTGCAG”, the binding signal was 22700 fluorescence intensity (a.u.).

On to “AATGTTGCAATCACTGACTGAAAATCACCCAGTTCTCGTACGGAGTCACCTAGTGCAG”, for which the binding signal is 16600 fluorescence intensity (a.u.). To “CTCTCTCTCTGATTAGTTAATTGAATACATTGTAAGGGCCCGGAGTCACCTAGTGCAG” belongs 41200 fluorescence intensity (a.u.). With “TCTACTTTTCTAATTCCCAATCTATTATTTCTAATTATATCGGAGTCACCTAGTGCAG”, the binding signal was 3800 fluorescence intensity (a.u.). Consider “AAGTTAACTAATTATACAGATTGCGTGTAAATTGTGAGACCGGAGTCACCTAGTGCAG”, for which the binding signal is 24400 fluorescence intensity (a.u.). To “TGTCGAATGTGATTTAACAATTCCGCTAATATTAACTGTTCGGAGTCACCTAGTGCAG” belongs 6020 fluorescence intensity (a.u.); to “TGTGAACCAAATTATAATTCACTCATCTGGACAGAACTCTCGGAGTCACCTAGTGCAG”, 5260 fluorescence intensity (a.u.). On to “TCGTTCAGATTGGATGCAACGGTGGAGATTAGTATTTCCACGGAGTCACCTAGTGCAG”, for which the binding signal is 6160 fluorescence intensity (a.u.). In the case of “CTGTCTGCTTTCTGATTGATTGAGATGAGATCTACTAGGACGGAGTCACCTAGTGCAG”, the binding signal is 28300 fluorescence intensity (a.u.).

In the case of “TGATAAATCATAGCGTTAAAATTGAAGTATCCTAGCTGTTCGGAGTCACCTAGTGCAG”, the binding signal was 8770 fluorescence intensity (a.u.). Take “CCAATTATACTTGCCAATCTGCCGTCACCTCACCTGTTCTCGGAGTCACCTAGTGCAG”: the binding signal was 5540 fluorescence intensity (a.u.). Consider “CGTTTAATTGTGTATATATATAGCCACATTAAAGTACACACGGAGTCACCTAGTGCAG”, for which the binding signal is 11100 fluorescence intensity (a.u.). As to “AATGATAAATTTAAAGTTTATATGTTAAATTGTTATTGTTCGGAGTCACCTAGTGCAG”, the binding signal was 18300 fluorescence intensity (a.u.).

As for “AGGGATTTGAAGCAATTTAAAATTTGACAACTAAAGTGACCGGAGTCACCTAGTGCAG”, the binding signal is 6610 fluorescence intensity (a.u.). To “CCACGCTAAAATTGGAAGTTTGACTAAAATTAGAAGTTTACGGAGTCACCTAGTGCAG” belongs 3220 fluorescence intensity (a.u.). Regarding “TTTAATTTTGCGTACGATCCAATCTCCCTCTAAACGGCCACGGAGTCACCTAGTGCAG”, the binding signal is 8570 fluorescence intensity (a.u.). To “AGTGAATTGAGGGATTTATAGTGAACTTACTCCTTATCTTCGGAGTCACCTAGTGCAG” belongs 3420 fluorescence intensity (a.u.). To “GACATAGATTACTTTTCATACAAGTCATCTATGATAATCCCGGAGTCACCTAGTGCAG” belongs 4280 fluorescence intensity (a.u.).
